“And” between values parts separate entries of the source, which are not always exact repeats. Equal values may be shown once. This list was built around the results that the source calls inconclusive (neither active nor inactive); the mix of calls is not that of the screen. A potency beside an inconclusive call is a rough fit, not a confirmed value. Some compounds were tested as several samples or in several runs, with calls that do not always agree. The source made the active and inactive calls. Calls come from the whole dose curve; as a rule, active = well fitted cell-killing curve with a large enough effect in the repeat runs; inconclusive = weak or mixed curves; inactive = no such curve, though single readings can be large or run the other way.
assay: qHTS assay to identify small molecule antagonists of the peroxisome proliferator-activated receptor delta (PPARd) signaling pathway - cell viability counter screen (AID 743213); details: PPARd-bla HEK293H viability, CellTiter-Glo luminescence, 17 h; viability change, negative = cytotoxic: at 62 µM (top of the series) unless noted; note: nearly all actives have a fitted effect of over 50% in size
From the text: U.S. Tox21 Program National Center for Advancing Translational Sciences [NCATS] NIH Chemical Genomics Center [NCGC] U.S. Environmental Protection Agency [EPA] National Institutes of Environmental Health Sciences [NIEHS] National Toxicology Program [NTP] U.S. Food and Drug Administration [FDA] Tox21 Assay Overview: The peroxisome proliferator-activated receptors (PPARs) are lipid-activated transcription factors of the nuclear receptor superfamily with three distinct subtypes namely PPAR alpha, PPAR delta (PPARd) and PPAR gamma. All these subtypes heterodimerizes with Retinoid X receptor (RXR) and have different physiological functions. […] To identify the compounds that inhibit PPAR-delta signaling, GeneBLAzer PPAR delta UAS-bla HEK293H cell line (Invitrogen, Carlsbad, CA, USA) containing a beta-lactamase reporter gene under the control of an Upstream Activator Sequence (UAS) was used to screen the Tox21 compound library. The cytotoxicity of the Tox21 compound library against the PPARd-bla cell line was tested in parallel by measuring the cell viability using CellTiter-Glo assay (Promega, Madison, WI) in the same wells.
Tox21 Assay Protocol Summary: PPARd-bla cells were dispensed at 3000 cells/5uL/well in 1536-well black wall/clear bottom plates using a Multidrop Combi (Thermo Fisher Scientific, Waltham, MA) dispenser. After the assay plates were incubated at 37 C and 5% CO2 for 5 h, 23 nL of compounds dissolved in DMSO, positive controls or DMSO only was transferred to the assay plate by a Pintool station (Kalypsys, San Diego, CA), followed by addition of 1ul L165041 (300 nM, final concentration in the wells). The assay plates were incubated at 37 C for 17 h, and then 1 uL of LiveBLAzerTM B/G FRET substrate was added using a Bioraptr Flying Reagent Dispenser (FRD) workstation (Beckman Coulter, Indianapolis, IN, USA). The assay plates were incubated at room temperature for 2 h and fluorescence intensity was measured by an Envision plate reader (PerkinElmer, Shelton, CT). For cell viability readout that measures cytotoxicity, 3 ul/well of CellTiter-Glo reagent was added into the assay plates using a Bioraptr FRD. After 30 min incubation at room temperature, the luminescence intensity in the plates was measured using a ViewLux plate reader (PerkinElmer).
% is set by controls: 0 for no effect and ±100 for the full control effect; potency is the fitted concentration of half-maximal effect; tags give direction and shape of the fitted curve.

Compound | Potency | viability change, negative = cytotoxic
COc1ccc(/C=C/c2cc(OC)cc(=O)o2)cc1 | inconclusive: 10 µM [cytotoxic, single point] | 
O=c1[nH]cnc2[nH]ncc12 | inconclusive: 0.266 µM [cytotoxic, single point] | 
CCN(CC)c1ccc(C(=C2C=CC(=[N+](CC)CC)C=C2)c2ccc(S(=O)(=O)O)cc2S(=O)(=O)[O-])cc1 | active: 27.5 µM | 
Cc1ccc2ccccc2n1 | inactive | 
CN(C)c1ccc(N=Nc2ccccc2C(=O)O)cc1 | inconclusive: 3.47 µM [rising, full curve] | 
O=S(c1cc(Cl)cc(Cl)c1O)c1cc(Cl)cc(Cl)c1O | inconclusive: 29.8 µM [cytotoxic, partial curve] | 
O=C(O)c1ccccc1OP(=O)(O)O | inconclusive: 1.19 µM [cytotoxic, single point] | 
O=CCCCC=O | inactive | 
CN(C)CCN(Cc1ccccc1)c1ccccn1 | inactive | 
CCOC(=O)NCCOc1ccc(Oc2ccccc2)cc1 | inconclusive: 6.92 µM [rising, full curve, poor fit] | 
COc1ccc2cc1Oc1ccc(cc1)C[C@H]1c3c(cc4c(c3Oc3cc5c(cc3OC)CCN(C)[C@@H]5C2)OCO4)CCN1C | active: 13.3 µM | 
O=S(=O)(O)c1ccc2nc(-c3ccccc3)[nH]c2c1 | inconclusive: 11.7 µM [cytotoxic, full curve, poor fit] and inconclusive: 33.5 µM [cytotoxic, partial curve, poor fit] | 
CCCCCCCCCCCCCCCCOP(=O)([O-])OCC[N+](C)(C)C | inconclusive: 29.8 µM [cytotoxic, single point] | 
CNCC[C@H](Oc1cccc2ccccc12)c1cccs1 | active: 5.31 µM | 
O=C(Nc1ccc(Oc2ccc(Cl)cc2)c(Cl)c1)c1cc(I)cc(I)c1O | inconclusive: 33.5 µM [cytotoxic, partial curve, poor fit] | 
Cc1cc(O)c2c(c1)C(=O)c1cc(O)cc(O)c1C2=O | inconclusive: 26.9 µM [cytotoxic, single point] | 
Nc1ncn([C@@H]2O[C@H](CO)[C@@H](O)[C@H]2O)c(=O)n1 | inconclusive: 33.5 µM [cytotoxic, partial curve, poor fit] | 
CN1C[C@H]2c3ccccc3Oc3ccc(Cl)cc3[C@@H]2C1 | inconclusive: 29.8 µM [cytotoxic, partial curve, poor fit] | 
COc1ccccc1Oc1c(NS(=O)(=O)c2ccc(C(C)(C)C)cc2)nc(-c2ncccn2)nc1OCCO | inactive | 
COc1cc(CNC(=O)CCCC/C=C/C(C)C)ccc1O | inactive | 

Compound | Potency | viability change, negative = cytotoxic
BrCc1cccc(Oc2ccccc2)c1 | inactive | 
CCCCCCCCCCCC[N+](C)(C)C | inconclusive: 13.8 µM [cytotoxic, partial curve, poor fit] and active: 54.9 µM and active: 15.5 µM | 
C/C=C(/C(=C/C)c1ccc(OC(C)=O)cc1)c1ccc(OC(C)=O)cc1 | inconclusive: 23.7 µM [cytotoxic, partial curve, poor fit] | 
c1ccc2cc(Nc3ccc(Nc4ccc5ccccc5c4)cc3)ccc2c1 | inconclusive: 55.3 µM [cytotoxic, single point] | 
COc1cc2nc(N3CCN(C(=O)c4ccco4)CC3)nc(N)c2cc1OC | inconclusive: 0.259 µM [cytotoxic, single point] | 
O=C(N/N=C/c1ccccc1O)c1ccncc1 | inconclusive: 1.33 µM [cytotoxic, full curve] | 
c1ccc2[nH]c(-c3cscn3)nc2c1 | inconclusive: 0.436 µM [cytotoxic, single point] | inconclusive: 1.15% [cytotoxic]
Cc1cc(C)c(N=Nc2c(O)c(S(=O)(=O)O)cc3cc(S(=O)(=O)O)ccc23)cc1C |  | inconclusive: 3.33% [cytotoxic] [at 6.26 µM]
COc1cc2c(c(OC)c1OC)-c1ccc(OC)c(=O)cc1[C@@H](NC(C)=O)CC2 | inconclusive: 0.0431 µM [cytotoxic, partial curve, poor fit] | 
O=CC=C(c1ccccc1)c1ccccc1 | inconclusive: 49.4 µM [cytotoxic, partial curve, poor fit] | 
C[C@]12CCC(=O)C=C1CC[C@@H]1[C@@H]2C(=O)C[C@@]2(C)[C@H]1CC[C@]2(O)C(=O)CO | active: 49 µM | 
Cc1nc2n(c(=O)c1CCN1CCC(c3noc4cc(F)ccc34)CC1)CCCC2 | inactive | 
Nc1cccc(N)n1 | inconclusive: 1.1 µM [cytotoxic, single point] | 
N[C@@H](CSSC[C@H](N)C(=O)O)C(=O)O | inconclusive: 0.335 µM [cytotoxic, partial curve, poor fit] | 
CCOC(N)=O | inactive | 
CCCCC(CC)COC(C)=O (stereo not given) | inconclusive: 4.31 µM [cytotoxic, single point] | 
C=CC(C)(CCC=C(C)C)OC(=O)/C=C/c1ccccc1 (stereo not given) | inconclusive: 61.6 µM [cytotoxic, single point] | 
O=C(OCC(COC(=O)c1ccccc1)(COC(=O)c1ccccc1)COC(=O)c1ccccc1)c1ccccc1 | inactive | 
CC(C)(C)C1CCC(=O)CC1 | inconclusive: 54.9 µM [cytotoxic, single point] | 

— PubChem BioAssay (Tox21)
